This assay relates to IL-6 secretion, 3T3-L1 adipocytes. Description: IL-6 secretion in LPS/3T3-L1 adipocytes. The class given is cell-based, murine. To be noted: 5.00 μg/ml (dose providing maximum inhibition); with 100 ng LPS/ml, D5 3T3-L1 adipocytes.

This note sets out measurements from patent US20080248131A1 (Metaproteomics, LLC, priority 2005, published 2008).

Marks after values point to notes of the source that are not given here.

For `COc1ccc2c(c1)c(CC(=O)O)c(C)n2C(=O)c1ccc(Cl)cc1` [indomethacin], the “% Inhibition (IL-6 secretion, maximum)” value was 53* %.
